Publication PMC6919601, “Identification of Plasmodium dipeptidyl aminopeptidase allosteric inhibitors by high throughput screening” (PLoS ONE, 2019)
“And” between values parts separate entries of the source, which are not always exact repeats. Identical values can stand only once. The whole screen tested about 110,000 compounds, of which about 230 (0.21%) showed an effect of 50% or more. The list shows a part of the results.

Biological target: DPAP1 (Plasmodium falciparum, UniProt Q8IIJ9)
Assay: primary screen, percent inhibition; read by cleavage of a fluorogenic dipeptide substrate; higher = more effect of the substance
Set-up: species or system P. falciparum D10 trophozoite lysates; single well
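Also: 30 min substrate incubation versus DMSO and 10 µM JCP410 controls.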

DPAP1, sequence (Q8IIJ9 whole entry, looked up): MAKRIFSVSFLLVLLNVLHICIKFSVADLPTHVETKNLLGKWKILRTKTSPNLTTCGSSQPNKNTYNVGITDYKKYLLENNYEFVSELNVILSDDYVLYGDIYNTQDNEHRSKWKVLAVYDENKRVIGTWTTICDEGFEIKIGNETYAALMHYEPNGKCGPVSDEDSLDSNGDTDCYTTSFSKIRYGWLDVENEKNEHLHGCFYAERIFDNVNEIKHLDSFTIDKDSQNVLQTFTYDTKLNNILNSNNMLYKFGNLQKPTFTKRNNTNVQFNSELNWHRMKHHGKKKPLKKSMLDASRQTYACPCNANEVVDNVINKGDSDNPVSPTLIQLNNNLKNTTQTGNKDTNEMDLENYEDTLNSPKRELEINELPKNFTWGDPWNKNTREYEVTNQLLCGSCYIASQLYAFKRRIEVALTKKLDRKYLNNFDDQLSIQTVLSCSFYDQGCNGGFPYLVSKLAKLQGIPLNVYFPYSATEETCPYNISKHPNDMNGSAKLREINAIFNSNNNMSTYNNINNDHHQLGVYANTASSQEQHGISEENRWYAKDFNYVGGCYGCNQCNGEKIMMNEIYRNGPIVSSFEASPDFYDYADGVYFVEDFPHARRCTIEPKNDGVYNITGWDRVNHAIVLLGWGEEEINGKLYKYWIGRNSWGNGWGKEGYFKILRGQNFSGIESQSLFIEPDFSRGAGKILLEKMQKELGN

| Structure (SMILES) | % Inhibition @ 10 uM |
| --- | --- |
| CN1CCC(NCC2CCCCC2)CC1 | -1.81% |
| COc1cc2c(cc1OC)C1(CCOCC1)CN(C)C2 | 0.774% and -1.96% |
| CCn1c(C)cc(/C=C2\NC(=O)N(CC(=O)Nc3ccccc3)C2=O)c1C | -2.84% |
| COc1ccccc1N1CCN(C(=O)CN(c2ccccc2)S(C)(=O)=O)CC1 | -2.17% |
| Cc1ccc(-c2nc(CSCC(=O)NCCCOC(C)C)c(C)o2)cc1 | 0.689% |
| CN(C)c1ccnc(Sc2c([N+](=O)[O-])ncn2C)c1C#N | 5% |
| Cc1cc(NS(=O)(=O)c2ccc(NS(=O)(=O)c3ccccc3)cc2)nc(C)n1 | 3.72% |
| NS(=O)(=O)c1ccc(NC(=O)c2cccs2)cc1 | 7.24% |
| C=Cc1ccc(Cn2c(C)c(CNCc3ccc(C)o3)c(C(=O)O)c2C)cc1 | 2.99% |
| Cc1cc(C)c2nc(N3CCCC(C(=O)NCCCN4CC(C)CC(C)C4)C3)sc2c1 (centres unmarked) | 3.4% |
| Oc1ncnc2[nH]c(N3CCCCC3)nc12 | -2.91% |
| O=C(Cc1ccc(Cl)cc1)Nc1ccc(Br)cn1 | 6.22% |
| COc1ccccc1OCC(=O)N(Cc1ccco1)Cc1ccccc1Cl | -2.21% |
| O=C1CC(c2cccs2)c2ccc3ccccc3c2N1 (centres unmarked) | -3.14% |
| COc1ccc(CNC(=O)CCn2c(=O)c3cccn3c3cccnc32)cc1 | 3.36% |
| Cc1nn(Cc2ccc(C(=O)NC3CC3)o2)c(C)c1Cl | -3.9% |
| Cc1cc(C)n2nc(CC(=O)NCc3ccccc3Cl)nc2n1 | 4.47% |
| Cc1ccc(-n2nnnc2SCC(=O)c2ccc(O)cc2)cc1 | -4.91% |
| COc1ccc(OC)c(/C=C2\CCCC3=C2Nc2ncnn2C3c2cc(OC)ccc2OC)c1 (centres unmarked) | 0.0842% |
| CCC1CCCCN1C1CC(=O)N(c2ccc(OC)cc2)C1=O (centres unmarked) | -0.661% |
| N#CC1=C(N)Oc2c(ccc3ccccc23)C1c1ccc2c(c1)OCO2 (centres unmarked) | 4.26% |
| O=C(NC1CCN(Cc2ccccc2)CC1)C1(S(=O)(=O)c2ccc(Cl)cc2)CC1 | 5.19% |

| Structure (SMILES) | % Inhibition @ 10 uM |
| --- | --- |
| CCOC(=O)C1=CN(Cc2ccc(F)cc2)C=C(C(=O)OCC)C1c1cccc(F)c1 | -1.46% |
| O=C(N/C(=C\c1cn(-c2ccccc2)nc1-c1ccccc1)C(=O)N1CCOCC1)c1ccc(Br)cc1 | 5.93% |
| COc1cccc2cc(-c3nc(NC(C)=O)sc3C)c(=O)oc12 | 0.379% |
| Cc1ccc(OCC(=O)NCCN2CCOCC2)cc1 | 7.35% |
| S=c1n(CN2CCOCC2)nc(Nc2ccccc2)n1-c1ccccc1 | 2.76% |
| CN1C=C2C(C#N)=C(N)C(C#N)(C#N)C(c3cccc(Cl)c3Cl)C2CC1 (centres unmarked) | -3.27% |
| CSc1ccc(CN(CCN(C)C)Cc2ccccc2)cc1 | -6.24% |
| Cc1cccc(-c2n[nH]c(S)n2)c1 | 43.9% |
| Fc1cccc(Cl)c1CN1CCN(C/C=C/c2ccccc2)CC1 | -2.02% |
| O=C(CN1C(=O)CSc2ncccc21)NCc1ccccc1F | -3.57% |
| O=C(NCc1ccccc1Cl)c1nnc(-c2ccncc2)o1 | 0.974% |
| CC1=CCC2C(=O)N(c3ccc(C(=O)Nc4ccccc4)cc3)C(=O)C2C1 (centres unmarked) | 1.7% |
| COc1cccc(OCCNS(=O)(=O)c2ccc(C3CCCCC3)cc2)c1 | 8.96% |
| Nc1nonc1C(=O)NCCNC(=O)c1cccs1 | -3.33% |
| COc1ccccc1Nc1nc(-c2ccc(S(=O)(=O)N3CCCC3)cc2)cs1 | 1.41% |
| O=C(CCCc1nnc2n3nc(-c4ccccc4)nc3c3ccccc3n12)NCCc1ccccc1 | -4.69% |
| CC(C)Oc1ccc(CC2CC(=O)NC2=O)cc1 (centres unmarked) | 1.24% |
| CCCCC(=C1C(=O)CC(c2ccccc2)CC1=O)N1CCCC1 (centres unmarked) | -6.7% |
| COc1ccc(Br)cc1/C=c1\sc2nc(=O)c(C)nn2c1=O | -5.2% |
| N#CC1=C(N)Oc2cc(N)ccc2C1c1cccc(Cl)c1Cl (centres unmarked) | 3.1% |
| c1cncc(CNCc2cccn2-c2nnc(N3CCOCC3)s2)c1 | -3.09% |
| COc1ccc(C2Nc3c(ccc4ccccc34)C3=C2CC(C)(C)CC3=O)cc1OC (centres unmarked) | 9.73% |

| Structure (SMILES) | % Inhibition @ 10 uM |
| --- | --- |
| O=C(NCCCCNC(=O)c1cccc(F)c1)c1cccc(F)c1 | -3.18% |
| O=C(Nc1ccc(Cl)c(Cl)c1)C(O)c1ccccc1 (centres unmarked) | -4.35% |
| CC1CCN(c2nc(-c3ccccc3)cc(C(F)(F)F)n2)CC1 | 5.41% |
| CCOC(=O)c1c(NC(=O)CNC(C)C)sc2c1CCCCC2 | -3.38% |
| COc1ccc(OC)c(C2C3=C(O)CCCC3=NC(C)=C2C(=O)Nc2ccccc2OC)c1 (centres unmarked) | -1.06% |
| CCCC1=NN(S(=O)(=O)c2ccc(C)cc2)C(O)(C(F)(F)F)C1 (centres unmarked) | -2.77% |
| Cc1ccc(-n2nc3c(=O)n(CCCC(=O)NCCc4ccc(Cl)cc4)nc(C)c3c2C)cc1 | -7.74% |
| CC1=C(C(=O)OCc2ccccc2)C(c2ccccc2)NC(=O)N1 (centres unmarked) | 1.38% |
| CCCc1nn(-c2ccc(F)cc2)c(O)c1/C=N/CCN1CCN(C(=O)c2ccccc2)CC1 | 0.503% |
| CCOC(=O)c1cnc2c(C(F)(F)F)cccc2c1NCCN(C)C | -0.169% |
| COCCCNC(=O)c1oc2ccc3c(c2c1C)C(O)CC1(CCCC1)O3 (centres unmarked) | 1.14% |
| CC(Oc1ccccc1)C(=O)n1nc(-c2ccco2)nc1NCc1ccc(Cl)cc1 (centres unmarked) | -5.08% |
| CCOC(=O)C1=C(CS(=O)(=O)c2ccccc2)NC(=O)NC1c1cc(OC)c(OC)c(OC)c1 (centres unmarked) | -5.79% |
| O=C(c1ccccc1F)N1CCN(Cc2ccccc2Br)CC1 | -6.94% |
| COc1ccc(C(=O)N2CCC(C)CC2)cc1Br | 0.145% |
| OCCN1CCN(Cc2ccoc2)CC1 | 1.04% |
| CCc1ccc(C2C(C#N)=C(N)Oc3[nH]nc(C)c32)cc1 (centres unmarked) | -5.63% |
| CCOc1ccc(C2NCCc3cc(OC)c(OC)cc32)cc1OCC (centres unmarked) | 1.93% |
| Cc1csc2nc(CNS(=O)(=O)N(C)C)cn12 | 4.14% |
| Cc1ccc(NC(=O)C(CC(C)C)N2Cc3ccccc3C2=O)nc1 (centres unmarked) | -0.234% |
| Cn1c2c(c(=O)n(C)c1=O)C(c1c(F)cccc1Cl)CC(=O)N2 (centres unmarked) | 0.895% |
